Laboratory results: the RNAGym collection of RNA variant scans (doi:10.7554/elife.90254)
The source gives no read counts; variants with many changes may rest on few reads.

B1: LINE1-mini (parent)
chain: GGCAGAGCUCAACACAGCGUGGCAAAGUGGCUGUGGCUAGACUGCC

Variants of: B1
Assay: self-cleavage, relative activity (ratio to wild type); higher = more cleavage; in vitro, sequencing; the parent is a self-cleaving ribozyme

Variant | self-cleavage
UGCCGAGCUCAACACAGCGUGGAAAAGUGGCUGUGGCUAGACUGCC | 0.04
CGCAGAGCUCAACACAACGUGGCAAAAUGGCUGUGGCUAGACUGCC | 0.02
CGCAGAGCCAAACACAGCGUGGCAAGGUUGCUGUGGCUAGACUCCC | 0
CGCAGAGCUCAACACAGCUUGGAAAACUGGCUGUGGCUAGACUGCC | 0.09
CGCAGAUCUCAACACAGCGUCGCAAAGUGGCUGUGGCUAGACUGGC | 0.01
CGCAGAUCUCAAAACAGCGUGGCAAAGUGGGUGUAGCUAGACUGCC | 0.05
CGCAGAGCUCAACACAGCGCGGCAAAUUGGCUGUGGCUAGACUGUC | 0.05
CGCAGAGCUCAACACAGCGUGGCAAAUGGGCUGUAGCUAGACUGUC | 0.02
CGCAGAGCUCAACACAGCGUGUCAAAGUAGCUGUGGCUAUACUGCC | 0.16
CGCAGAGCGCAACACAGCGUGGCAUAGUGGCUGUGGCUAGACUGCA | 0
CGCAGAGCUCAACACAGCGUGGCAAAGUGGCUCAGGCUCGACUACC | 0.01
CGCAGAGCUCAACACAUCGUCGCAAAGUGGCUGUGGCUAGACUGCC | 0.06
CGCAGAGCUCAACACAACGUGGCAAAGUGACUGUGGCCAGACUGCU | 0
CGCAGAGCUCAACACAGCGUGGCAAAUUGGCUGUGGCUAGACUGAC | 0.17
CGCAGAGCUCAACACAGCGUGGCAAAAUGGCUGUGGCUAGACUGUA | 0.12
CGCAGAGCACAACACAGAGUCGCAAAGUGGCUGUGGCUAGACUGCC | 0.04
CGCAGAGCUCAACACAGCGUGGCAAAGUGGCUGGGGCUAGAGUGGC | 0.01
CGCAGAGCACAACACAGCGUGGCAACGUGGCUGUGUCUAGACUGCC | 0.03
CGCAGAGCCCAACACAGCGUGGCAGAGUGGCUGUGGCUAGACUGCG | 0.01
CGCAGAGCUCAACACAACGUGGCACAGUGGCUGUGGCUAGACUGCC | 0.01
CGCAGAGCUCAACACAGCGUGUCAAAAUGGCUGUGGCUAGACUGCC | 0.09
CGCAGAGCUCAACACAGCGUGGCAAAGUGUAUGUGACGUGACUGCC | 0.07
CGCAGAGCUCAACACAGCGUGGCAAAGUGGCGGUGGCUAGACUGUC | 0.05

Variant | self-cleavage
CGCAGAGCUCAACACAGCGUGUCAAAGUGGCUGUGGCUAGACUGAC | 0.2
UGCCGAGCUCAACACAGCGUGGCAAAGUGGGUGUGGCUAGACUGCC | 0.05
CGCAGAGCCCAACACAGCGUGUCAAAGUGGCUGGGGCUAGACUGCC | 0.01
CGCAGAGCUCAACACAGCAUGGCAAAGUGGCGGUGGCUAGACUGCC | 0.02
CGCAGAGCUCAACACAACAUGGCAAAGUGGCUGUGGCUAGACAGCC | 0.01
CGCAGAGCUCAACACAGCGUGGCAAAGUGGCUCUGGCUAGACUGAC | 0.01
UGCCGAGCUAAACAUAGCGUGGCAAAGUGGCUGUAGCUAGACUGCC | 0.01
CGCAGAGCUCAACACAGCGUGGCAAAGUGCCUGUGGCUAAACUGCA | 0.02
CGCAGAGCUCAACACAGCGUGGCAAAGGGGCUGUGCCUAGACUGCU | 0
CGCAGAGCUCAACACAGCCUGGCAAACUGGCUACGGCUAGACUGCC | 0.01
CGCAGAGCGGAACACAGCGUGGCAAAGUGGCUGUGGCUAGACUGCA | 0
CGCAGAGCUCAACACAGCGUGGCAAAGUAGCUCUGGCUAGACUGCC | 0.01
CGCAGAGCUCAACACAGCGUGACAAAGUGGAUGUGGCUAGACUGCC | 0.01
CGCAGAGCCCAACCCAGCGUGGCAAAGUGGCUGUUGCUAGACUGCC | 0.02
CGCAGAGCUCAACACAGCGUGACAAAGUGGCUGUGGCUAGACUGUC | 0.12
CGCAGAGCUCAACACAGCUUGGCAAAGUAGCAGUGCCUAGACUACC | 0.01
CGCAGAGCUCAACACAGCUUCGCAAAGUGGCUGUGGCUAGACUGCC | 0.07
CGCAGAGCUCAACACAGCGUGCCAAAGUGGCCGUGGCUAGACUGCC | 0
CGCAGAGCUCAACACAGCGUGGCAAAGUGGCUUUGCCUAGACUGGC | 0.01
CGCAGAGCUCAACACAGCGUGGCAAAGUGGCCGUGUCUAGACUGCC | 0.05
CGCAGAGCGCACCACAGCGUGGCAAAGUGACUGUGGCUAGACUGCC | 0
CGCAGAGCGCAACACAGCGUGGCAACGUGGCUGUGGUUAGACUGCC | 0.01
CGCAGAGCCCAACACCGCGUGGCAAAGUGGCUGUGGCUAAAAUGCC | 0

Variant | self-cleavage
CGCAGAGCUCAACACACCGUGGCAAAGUGGCUGUGGCUAGAGUGCU | 0.01
CGCAGAGCUCAACACAGCCUGGCAAAGUGGUUGUGGCUAGACUGCG | 0.23
UGCCGAGCUCAACUCAGCGUUGCAAAGUGACUGUGGCUAGACUGCC | 0.01
CGCAGAGCUCAACACAGCGUUGCAAACUGGCAGUGGCGGGACUGCC | 0.01
CGCAGAGCUCAACACACCGUAGGAAAGUGGCUGUGGCUAGACUGUC | 0.11
CGCAGAGCUCAACACAGCGUGGCAAAGUAGCCGUGGCUUGACUGCC | 0.01
CGCAGAGCUCAACACAUCGUCGCAGAGUGGCUGUGGCUAGACUGCC | 0.03
CGCAGAGCUCAACACAUCGUGGCAAAGUGGCUGUCGCUAGACUGCC | 0
CGCAGAGCGCAACACAACAUGGCAAAGUGGCUGUCUCUAGACUGCC | 0.01
CGCAGAGCUCAACACAGCGUGGCAAAGUAACUGUGGCUACACUGCC | 0.02
CGCAGAGCUCAACACAGCGUGGCAAAGUGGCUGAGGCUAGACUGCA | 0.02
CGCAGAGCUCAACACAGCGUGGCAAACUGUCUGUGGGUAGACUGCU | 0.03
CGCAGAGCUCAACACAGCGUGCCAUAGUGGUUGUGGCUAGACUGCC | 0.04
CGCAGAGCUCAACACAGCGUGGCAAAGUGGCUGUCGGUAGACUGCC | 0
CGCAGAGCUCAACACAGCCUGUCAAAGUGAAUGUGACUAGACUGCC | 0.04
UGCCCAGCUCCACACAGCGUGGCAAAGUGGCUGUUGCUAGACUGCC | 0.02
CGCAGAGCUCAACACAGCGUGGCAAAGUUGCUGUGGCAAUACUGCC | 0
CGCAGAGCCCAAAACAGCGUGGCAAAGUGGCUGUGUCUAGACUGCC | 0.02
CGCAGAGCCCAACACAGCACGGCAAAGUGGCUGUGGCUAGACUGCC | 0
UGCCGAGCUCAACAAAGCUUGGCAAAGUGGCUGUGGCUAGAUUGCC | 0.01
CGCAGAGCUCAACACAGCUUGGCAAAGUGUCUGUGGCUAGACUGGC | 0
CGCAGAGCUCAACACAGCUUGGCAGAGUGGCUGUAGCUAGACUGCC | 0.01
CGCAGAGCGCAACACAGCGUGGCAAAGUGGCUGAGGCUAGACUGCC | 0.02

Variant | self-cleavage
CGCAGAGCUCAACACAUCGUGGCAAAAUGGCUGUGGCUAAACAGCC | 0.02
CGCAGAGCGCAACACAGCGUGGCAAAGUGGCUGGGGAUAGACUGCC | 0.02
CGCAGAGCUCAACACAGCGUGGCAAAGUGGCUGGGGCUAGACCGCC | 0.03
CGCAGAGCUCAACACAGCGUGGCAAAGUGGCUUUGGCUAGUUUCCC | 0.01
CGCAGAGCACAACACAGCGUGGCAAAGUCGCUGUGGCUAGACUGCC | 0
CGCAGAGCUCAACACAUCGUGGCGAAGUGGCUGUGUCUAGACUGCC | 0.02
CGCAGAGCUCAACACAGCGAGGCAAAGUGGCUGUGGCGAGACUGCC | 0.02
CGCAGAGCUCAACACAGCGUGGCAAAGUGGCUAUUGCUAGACUGCC | 0.03
CGCAGAGCUCAACACAGCGUGGCAAAGUGGCUGUAGCUAGACUGGC | 0.02
CGCAGAGCUCAACACAUCGUGGCAAAGUGGCUGAGGCUAGACUGCC | 0.02
CGCAGAGCUCAACACAGCGUCGCUUCGUGGCUGUGGCUAGACUGCC | 0.12
CGCAGAGCUCAACACAGCCUGGCAAAGUUGCUGUGGCUAGACUGCC | 0.06
CGCAGAGCUCAACACACCGUGGCAAAGUGCCUGUGGCGAGACUGCC | 0.01
CGCAGAGCUCAACACAGCAGGGCAAAGUGGCUGUGGCUAGGCUGCC | 0.04
CGCAGAGCUCAACACAGCGUGGCAAACUGGAUGUAGCUAGACUGCC | 0.05
CGCAGAGCUCAACACAGCGCGGCAAAGUGGCUGUAACUAGACUGCA | 0.01
CGCAGAGCUCAACACAGCGAGGAAAAGUGGUUGUGGAUAGACUUCC | 0.08
CGCAGAGCUCAACACAGCUUCGCAAAGUGGCUGAGGCUAGACUGCC | 0.01
CGCAGAGCGUAACGCAGCGUGGUAAAGUGGCUGUGGCAAGACUGCC | 0
CGCAGAUCUCAACACAGCGUGGCAAAGUGGCUAGGGCUAGACUGCC | 0.11
CGCAGAGCUCAACACAGCGUGGCAAAGUGGCAGUGGUUGGACUGCA | 0.08
CGCAGAGCUCAACACAGCGUGGCAAAGGGGCUGUGGCUAGUCUGCC | 0.24
CGCAGAGCUCAACACAGCGUAGCAAAGUGGCUGUGGCUAGACUACC | 0.03

Variant | self-cleavage
CGCAGAUAUCUACACAGCGUGGCAAAGUGGCUGUGGCUUGACUGCC | 0.01
CGCAGAGCUCAACACAGCGUGGCAAAGUGGCUGUCGCUAGACUGCA | 0.03
CGCAGAGCUCAACACAGCGUUGAAAAGUGGGUGUGGCUAGACUGCC | 0.02
CGCAGAGCCCAACACAGCGUGGCAAAGUGGCUGUGGCUUGACUGCC | 0.04
CGCAGAGCUCAACACAGCGAGGCAAACUGGCUGUGGCUAGACUGCC | 0.09
CGCAGAGCUCAACACAGCGUGGCAAAGUCGCUGUGGCUCGAAUGCC | 0
CGCAGAGCUCAACACAGCGUGGCAAAGUGGCUGUGGCUAUAAUGCC | 0.02
CGCAGAGCUCAACACAGCGUGGCAAAGUGGCUAUGGCUAGACUCCC | 0.03
CGCAGAGCUCAACACAGCGUGGCAAAGUGGCUGUGGCUAUACUGGC | 0
CGCAGAGCCCAACACAGCGUGGCAAAGUGGCAGCGGCUAGACUGCC | 0.02
CGCAGAGCUCAACACAACGUGGAAAAGUGGCUGUGGCUAGACUGGC | 0.04
CGCAGAGCUCAACACAGCGUGGCAAAGUGGCUGUGUGUAGACUGCC | 0.03
CGCAGAGCUCAACACAGCGUGGCAAAGUGUAUGUGGCUAGACUGCC | 0.01
CGCAGAGCUCAACACAGCGUGCGAAAGAGGCAGUGGCUAGACUGCC | 0.02
CGCAGAGCUCAACACAGCAUGGCAAAGUGGCAGAGGCUAGACUGCC | 0.04
CGCAGAGCUCAACACAGCGUGGCAAAGUGCCUGUGUCUAGACUGCC | 0.02
CGCAGAGCUCAACACAGCGUGACAAAGUGGCAGUUGCCAGCCUGCC | 0.01
CGCAGAGCUCAACACAGCGAGGCAAAGUGGCUGUGGCUAGGCUGCC | 0.03
UGCCGAGCUCCACACAGCGUGGCAAAGUGGCUGUGGCUAGACUGCC | 0.01
CGCAGAGCUCAACACAGCGUGGCAAAGUGGCUCUGGCUAGACUGCA | 0.01
